PubChem BioAssay AID2060345 (Molecular Pharmacology Branch, DTP, NCI, 2025)
Some entries of the source have several records that differ or are many. This is not the full list of results. The source may hold further records. Values that stand side by side repeat one measurement in other runs, samples, wells, individuals or studies. Marks such as (2×) stand for listed records that agree.

Tested on: MALME-3M multicell spheroids, viability
Assay: Anticancer human tumor MALME-3M cell line growth inhibition [TAK];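 further: spheroids exposed to drugs for seven days before readout; 100% = DMSO vehicle control viability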
Conditions: stronger effect = lower value
From the text: Combinatorial screen of targeted agents with TAK-243 and ipatasertib in multi-cell type tumor spheroids
A high-throughput screen of multi-cell type tumor spheroids was designed to identify active combinations of targeted small molecules and TAK-243 or ipatasertib. Complex spheroids include a stromal component modeled by human endothelial cells (HUVEC) and fibroblasts modeled by human mesenchymal stem cells (MSCs). The concentration ranges selected for each drug and investigational agent were based upon clinically achievable concentrations if the clinical Cmax of the agent was known.
Compounds. The drugs and investigational agents: TAK-243 (785004), ipatasertib (767898), everolimus (733504), selumetinib (741078), bortezomib (756655), trametinib (758246), ixazomib (758254), vemurafenib (761431), dabrafenib (764134), sapanisertib (764658), alpelisib (765974), and copanlisib (816437), were obtained from the National Cancer Institute (NCI) Developmental Therapeutics Program Chemical Repository. The FDA-approved anticancer drug set is available from the NCI Developmental Therapeutics Program. […] The stock solutions were prepared in dimethyl sulfoxide (DMSO, Sigma-Aldrich, St. Louis, MO, cat. D2650) at 800-fold the tested concentration and stored at -70 degrees C prior to their use. All drugs and investigational agents were tested over a range starting from a high concentration at or near the clinical Cmax and decreasing in half-log increments. If the clinical Cmax for an agent had not been determined, the highest concentration tested was 10 microM.
NCI60 Cell Culture. NCI60 cell lines were obtained from the NCI Developmental Therapeutics Program Tumor Repository. […] The optimal seeding densities for each of the cell lines at each time point assessed were determined prior to performing the concentration response studies. […]
For the pre-screen, cell seeding densities were determined from a titration spanning the range from 5,000 to 313 cells per well. […]

CC(C)NCC(C(=O)N1CCN(c2ncnc3c2C(C)CC3O)CC1)c1ccc(Cl)cc1 (stereo not drawn)
viability, T/C (compound alone 0.3 µM): 112, 117, 119 (2×), 107, 113, 123, 85.6, 118, 122% | viability, T/C (compound alone 0.949 µM): 96.8, 104 (2×), 107, 96.2, 96.9, 102, 108, 76.1, 103% | viability, T/C (compound alone 3 µM): 89.5, 83.7, 98.3, 91.4, 72.5, 86.6, 92.1, 65.8, 89, 90.9%
